Experimental data from PubChem BioAssay AID686978 (National Center for Advancing Translational Sciences (NCATS), 2013).
Several values for one entry are separate records, joined by “and”; a condition that tells them apart may be missing. Equal values may be shown once. In all, about 420,000 compounds went through this assay and about 64,000 (15%) were called active. The inconclusive results got no clear call from the source; some entries with a clear call stand among them for comparison. Calls follow the shape of the dose curve; as a rule, active = well fitted inhibition curve with a large enough effect; inconclusive = small, poorly fitted or top-dose-only effect; inactive = flat fitted curve, though single readings scatter. No potency is given beside an inconclusive call; the fits are too rough.

Test: qHTS for Inhibitors of human tyrosyl-DNA phosphodiesterase 1 (TDP1): qHTS in cells in absence of CPT; also: nearly all actives have a fitted effect of over 55% in size
Conditions: DT40 Tdp1-/- hTDP1 cells, no CPT, ATP luminescence, 48 h; activity change, negative = growth inhibition: at 46.2 µM (top of the series) unless noted
Summary of the method: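 Luminescent ATP content (CellTiter-Glo) served as the growth readout. Knockout chicken DT40 cells expressing human TDP1 were exposed to compounds without camptothecin for a minimum 48 hr at 37 °C.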
% is scaled to controls: 0 for no effect and ±100 for the full control effect; potency is read from the fitted curve at half-maximal effect; tags tell the direction and shape of the fitted curve.

Compound	Potency	activity change, negative = growth inhibition
CC(C)CCNC(=O)c1ccc(OC2CCN(S(=O)(=O)N(C)C)CC2)cc1	inconclusive [inhibitor, single point]	–
COc1cc(OC)c(OC)cc1CCC(C)NCCC(c1ccccc1)c1ccccc1 (configuration not stated)	active: 5.8 µM	–
Cc1c(C(=O)OCC(=O)NC(=O)NC2CCCCC2)cccc1[N+](=O)[O-]	inconclusive [inhibitor, single point]	–
Cc1ccc(-c2[nH]ncc2C(=O)c2ccccc2C)c(O)c1	–	inactive: -12.3%
CC(O)CNc1nc(NCc2ccccc2)c2cnn(C)c2n1 (configuration not stated)	–	inactive: -20.7%
Cc1cc(NC(=O)COC(=O)C2CC(=O)N(c3ccc(Cl)cc3)C2)no1 (configuration not stated)	–	inactive: -13.5%
CC(O)CNCCCCOc1ccc(OCc2ccccc2)cc1 (configuration not stated)	inconclusive [inhibitor, single point]	–
COc1ccccc1N1CCN(C(=O)CCc2c[nH]c3ccccc23)CC1	–	inactive: -29.4%
CC(C)(C)n1nnnc1C(c1cccs1)N(Cc1cccnc1)CC1CCCO1 (configuration not stated)	inconclusive [inhibitor, single point]	–
COC(=O)c1ccccc1NC(=O)CSc1nnnn1-c1ccc(C)cc1C	inconclusive [inhibitor, partial curve]	–
CN1/C(=C\C=C(/C#N)C(=O)Nc2ccc(Cl)cc2)C(C)(C)c2ccccc21	–	inconclusive: -30.7% [inhibitor]
CC(C)C(=O)Nc1ccc(C(=O)NCc2cccnc2)cc1	–	inconclusive: -31.9% [inhibitor]
O=C(c1ccco1)N1CCCN(Cc2cn[nH]c2-c2ccc(-c3ccccc3)cc2)CC1	inconclusive [inhibitor, single point]	–
O=C(Nc1ccc(Cl)cc1)c1cc(S(=O)(=O)N2CCOCC2)cs1	inconclusive [inhibitor, partial curve]	–
O=C(c1nc2ccccn2c1CN1CCN(c2ccccc2O)CC1)N1CCCC1	inconclusive [inhibitor, single point]	–
COc1ccc(C(=O)NCCCOC(C)C)cc1OC1CCN(C(C)=O)CC1	–	inactive: 2.15%
O=C1CCCN1CCCNc1ccc2nnc(CCC(=O)N3CCN(c4ccccc4)CC3)n2n1	–	inactive: -1.73%
O=C(C1CCCN(S(=O)(=O)c2cccc3nonc23)C1)N1CCN(c2ccccc2Cl)CC1 (configuration not stated)	active: 13 µM and active: 16.4 µM	–
Cc1ccc(Nc2cc(C)nc(N3CCOCC3)n2)cc1	inconclusive [inhibitor, single point]	–
CCOC(=O)C1=C(O)/C(=C/c2ccc(-c3ccccc3C(=O)O)o2)SC1=Nc1ccc(C)cc1	inconclusive [inhibitor, single point]	–
CCOc1ccccc1NC(=O)n1ncc2cc(Cl)ccc21	–	inconclusive: -30.8% [inhibitor]
CN(C)CCNC(=O)c1cccc(-c2cnc3c(NC=O)cc(-c4cccc(C(F)(F)F)c4)cn23)c1	inconclusive [inhibitor, single point]	–
COc1ccccc1NS(=O)(=O)c1cn(C)cn1	–	inactive: 1.81%
CSc1nc(Oc2ccc(Cl)cc2)c2sccc2n1	–	inactive: -5.45%

Compound	Potency	activity change, negative = growth inhibition
Cc1ccc(NC(=O)Cn2c(=O)n(CCC(=O)NC3CCN(Cc4ccccc4)CC3)c(=O)c3ccccc32)cc1	inconclusive [inhibitor, single point]	–
CCC(C)(C)n1nnnc1C(c1cc2ccc(C)cc2[nH]c1=O)N(Cc1cccnc1)Cc1ccco1 (configuration not stated)	inconclusive [inhibitor, single point]	–
CCOC(=O)N1CCN(c2c(NCCc3ccccc3)c(=O)c2=O)CC1	–	inactive: 3.66%
CCc1nnc(NC(=O)CSc2nc3ccc(OC)cc3[nH]2)s1	–	inactive: -7%
Cc1ccc(-n2c(C)nn(Cc3ccc([N+](=O)[O-])cc3)c2=O)cc1	–	inactive: -24.2%
COc1ncccc1-c1nnn(-c2ccc(Cl)nc2)n1	–	inactive: -11.6%
CCCCc1ccc(-c2ccc(Br)cc2O)nc1	inconclusive [inhibitor, single point]	–
Cc1cc2ncn(CC3CC3(Cl)Cl)c2cc1C (configuration not stated)	inconclusive [inhibitor, single point]	–
CCn1nc(C)c(CNC(=O)c2ccc(OC3CCN(Cc4ccccn4)CC3)cc2)c1C	active: 2.91 µM	–
CCOc1ccccc1NS(=O)(=O)c1ccc2[nH]c(=O)ccc2c1	–	inactive: -18.5%
Cc1cccc(CNc2nc(-c3c(C)noc3C)nc3ccccc23)c1	inconclusive [inhibitor, single point]	–
C[n+]1c2n(c3ccccc31)N=C(c1ccc(-c3ccccc3)cc1)CS2	active: 0.517 µM	–
CC1=C(/C=C/C(C)=C/C=C/C(C)=C/C(=O)Oc2c(C)c(C)c3c(c2C)CC[C@@](C)(CCC[C@H](C)CCC[C@H](C)CCCC(C)C)O3)C(C)(C)CCC1	–	inactive: -22.3%
COc1ccc(CCNS(=O)(=O)c2cccc([N+](=O)[O-])c2)cc1OC	–	inactive: 1%
CC(C)Oc1ccc(C(=O)Nc2cccc(S(=O)(=O)N3CCCC3)c2)cc1	active: 20.6 µM	–
Cc1sc(-c2ccncc2)nc1OC(=O)c1ccc(Cl)cc1	inconclusive [inhibitor, single point]	–
CCN1C(=O)C2(c3ccccc31)c1c(oc3ccc(C)cc3c1=O)C(=O)N2CCCOC(C)C (configuration not stated)	inconclusive [inhibitor, single point]	–
NNC(=O)c1cc2ccccc2[nH]1	–	inactive: -5.08%
Cc1cc2ccccc2n1CCNC(=O)c1ccc(F)cc1	active: 18.4 µM	–
Cc1ccc(NC(=O)CCCN2C(=O)c3cccc4cccc(c34)C2=O)cc1	inconclusive [inhibitor, single point]	–
COc1cccc(C(=O)NCC2CCCN2S(=O)(=O)c2ccccc2)c1 (configuration not stated)	inconclusive [inhibitor, partial curve]	–
Fc1ccc(-c2cn3cc(Cc4ccccc4Cl)sc3n2)cc1	inconclusive [inhibitor, single point]	–
COc1ccc(-c2cc(C(=O)N/N=C(\C)c3ccco3)c3ccccc3n2)c(OC)c1	inconclusive [inhibitor, partial curve]	–
